# Out of some 340,000 compounds screened, about 6,900 (2%) were called active. Rule as the data show it: active = inhibition above about 30%; inactive = below that, where a call was filed. Only a part is listed here, and it is no random draw. Where no call is shown, the source filed none.
# Biological target: D(2) dopamine receptor (Homo sapiens) (UniProt P14416)
# Assay: HTS Assay for Allosteric Antagonists of the Human D2 Dopamine Receptor: Primary Screen for Antagonists; also: 0% is about no effect
# Conditions: HEK293 TREx D2 cells, calcium flux, dopamine EC80; at 10 µM; stronger effect = higher value
# In short: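 Calcium flux kinetic readout in an inducible HEK293 TREx D2 line plated overnight at 30 C. After 180 s compound exposure, an EC80 dopamine challenge follows with another 180 s kinetic read to detect antagonism.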
# Sequence of UniProt P14416 (P14416 whole entry, looked up): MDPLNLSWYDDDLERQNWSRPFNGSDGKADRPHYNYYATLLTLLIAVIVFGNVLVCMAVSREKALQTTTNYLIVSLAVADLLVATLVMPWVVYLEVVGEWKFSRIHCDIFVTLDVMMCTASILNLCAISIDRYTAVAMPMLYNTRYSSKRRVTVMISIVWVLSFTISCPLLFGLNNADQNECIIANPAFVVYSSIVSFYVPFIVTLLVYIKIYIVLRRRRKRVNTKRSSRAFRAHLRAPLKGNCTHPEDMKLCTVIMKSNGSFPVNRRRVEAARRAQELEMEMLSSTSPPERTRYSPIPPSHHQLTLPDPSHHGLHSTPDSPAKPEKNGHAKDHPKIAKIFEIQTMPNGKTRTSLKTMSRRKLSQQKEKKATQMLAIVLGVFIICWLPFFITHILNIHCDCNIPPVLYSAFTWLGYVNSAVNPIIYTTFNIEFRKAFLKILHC
row,Compound,inhibition
1,CC(=O)N1CCc2c(sc3c2c(=O)n(-c2ccccc2C)c(=O)n3CC(=O)c2ccccc2)C1,1.41%
2,COC(=O)c1ccc(C2C=C(c3ccc(Cl)cc3)Nc3nc4ccccc4n32)cc1 (stereo not drawn),2.76%
3,O=C(CSc1nc(-c2ccc(F)cc2)nc2c1Cc1ccccc1O2)Nc1cccc(C(=O)O)c1,0.71%
4,N#Cc1cccc(NC(=O)C2CCN(c3cnccn3)CC2)c1,-11.3%
5,CC(=O)Nc1ccc(NC(=O)c2cc3c(=O)n(Cc4cccnc4)ccc3nc2C)cc1,10.8%
6,Cc1cc(C)n(CCc2nc3c4ccccc4nc(SCc4ccc(Cl)cc4)n3n2)n1,0.275%
7,O=C(NC1(C(F)(F)F)N=C(c2ccccc2)N(C2CCCCC2)C1=O)c1ccc(F)cc1 (stereo not drawn),-9.8%
8,CCOc1ccc(NC(=O)CC2C(=O)N(c3ccc(C)cc3)C(=O)N2C2CCCCC2)cc1 (stereo not drawn),-5.07%
9,Cn1ccc2cc(S(=O)(=O)N3CCCC(C(=O)NCc4ccc(F)cc4)C3)ccc21 (stereo not drawn),-4.28%
10,COc1ccc(-c2nc(SCC(=O)c3ccc(Br)cc3)n[nH]2)cc1,1.02%
11,Cc1c(CNC2CCC(C)CC2)c(C(=O)O)c(C)n1Cc1ccccc1F (stereo not drawn),-7.47%
12,CCC1CN(C(=O)Nc2ccccc2C(F)(F)F)c2ccccc2O1 (stereo not drawn),6.66%
13,COc1ccc(/C=C(/C#N)c2nc(-c3cc4ccccc4oc3=O)cs2)cc1,-4.55%
14,NS(=O)(=O)c1ccc(NC(=O)Cc2cccs2)cc1,active: 38.6%
15,Cc1ccc2c(c1)c(=O)c(C(=O)c1ccccc1)cn2Cc1ccccc1F,-20.6%
16,CCOc1cccc(C(=O)Nc2nnc(S(=O)(=O)N(C)c3ccc(C)cc3)s2)c1,-19.4%
17,COc1ccc(NC(=O)CC2C(=O)N(c3ccccc3)C(=O)N2CCC2=CCCCC2)cc1 (stereo not drawn),21.3%
18,COc1cc(NC(=O)C2CCN(S(=O)(=O)c3c(C)noc3/C=C/c3cccs3)CC2)cc(OC)c1,11.6%
19,COc1ccc(S(=O)(=O)N(CC(=O)Nc2ccc(OC)cc2OC)c2ccc(Cl)cc2)cc1,-17.1%
20,FC(F)(F)c1ccccc1/C=N/N1CCN(Cc2ccccc2)CC1,active: 30.1%
21,CCOC(=O)c1ccc(CSc2nnc3cc(C)c4ccccc4n23)cc1,-1.13%
22,COc1ccccc1NC(=O)CN(c1ccc(C(C)C)cc1)S(=O)(=O)c1c(C)noc1C,-2.94%
23,O=C(NC1CCCCC1)c1ccc2c(c1)sc1nc(-c3ccccc3)cn12,7.58%
24,N#Cc1ccc(C(=O)N2CCN(c3nc4ccc(F)cc4s3)CC2)cc1,7.77%
25,COc1ccc(-c2oc3ncn4nc(-c5ccc(Cl)cc5)nc4c3c2-c2ccc(OC)cc2)cc1,11.6%

row,Compound,inhibition
1,COc1cc2c(cc1OC)C(c1ccc(Cl)cc1)N(c1ccc(C)c(F)c1)C(=O)C2 (stereo not drawn),4.3%
2,CN(C)S(=O)(=O)c1cc(NC(=O)CNCc2ccc(F)cc2)ccc1Cl,active: 43.8%
3,Cc1cccc(NC(=O)CSc2nc3ccc(NC(=O)c4cccs4)cc3s2)c1,1.1%
4,CC(C)c1ccc(OCc2cc(=O)n3c4c(sc3n2)CCCC4)cc1,16.1%
5,COc1ccc(OCC(=O)Nc2cc(-c3cccc(Cl)c3)nn2-c2ccccc2)cc1,-8.73%
6,COc1ccc(C(CNC(=O)c2oc3ccccc3c2C)N2CCCC2)cc1 (stereo not drawn),active: 76%
7,CCc1ccc(Nc2cc(C)nc3nc(Cc4ccc(Cl)cc4)nn23)cc1,3.65%
8,COc1ccc(C2c3c(n(C)c4ccccc34)C(=O)N2CC(=O)Nc2ccc(Cl)cc2)cc1 (stereo not drawn),0.438%
9,CCc1ccc(N2CCn3c2nc2c3c(=O)n(Cc3cccc(C)c3)c(=O)n2C)cc1,-10.7%
10,COc1cc2nc(SCC(=O)Nc3ccc(F)cc3)n3nc(CCn4c(C)nc5ccccc54)nc3c2cc1OC,6.01%
11,Cc1ccc(OC(=O)c2snnc2C)cc1C,-3.48%
12,O=C(CSc1ncc2c(n1)-c1ccccc1N(Cc1ccc(F)cc1)S2(=O)=O)c1ccc(Br)cc1,-3.29%
13,Cc1ccc(NC(=O)C(=O)NCC(c2ccc3c(c2)OCO3)N2CCOCC2)c(C)c1 (stereo not drawn),-8.91%
14,CCCN1CCN(CCNC(=O)Nc2cc(OC)cc(OC)c2)CC1,-3.68%
15,COc1cc2c(=O)n(Cc3ccccc3)c(=O)n(CC(=O)Nc3cc(C(F)(F)F)ccc3Cl)c2cc1OC,23.7%
16,CN1C(C(=O)Nc2ccc(OC(F)(F)F)cc2)=CC(c2ccc3c(c2)OCO3)=NS1(=O)=O,3.51%
17,O=C(Cn1cccc1C(=O)c1ccccc1)NCc1ccc(F)cc1,3.62%
18,CCN(CC)c1ccc(NS(=O)(=O)c2ccc3c(c2)CCCN3C(C)=O)c(C)c1,12.8%
19,O=C(CN1CCN(S(=O)(=O)c2ccc(Cl)cc2)CC1)Nc1ccc(F)cc1F,active: 39%
20,COC(=O)c1cc2oc(C)cc2n1Cc1c(C)cc(C)cc1C,1.68%
21,COc1ccc2c(c1)CC(C(=O)N1CCC(C(N)=O)CC1)CO2 (stereo not drawn),-10.9%
22,COc1ccc(CCNC(=O)c2cc(Sc3cccc(Cl)c3)nc3ccccc23)cc1OC,6.42%
23,COc1ccc2c(c1)NC(c1ccc(OCC(C)C)cc1)=NC(c1ccncc1)=N2,7.72%
24,CCOc1ccc(-c2n[nH]c3c2C(c2ccccc2OC)N(c2ccc(Br)cc2)C3=O)cc1 (stereo not drawn),8.12%
25,O=C(Nc1cc(Cl)cc(Cl)c1)c1ccc(F)c(S(=O)(=O)N2CCCCCC2)c1,-8.41%

row,Compound,inhibition
1,Cc1ccc(C(C)C)c(OCCn2cc(C(=O)c3ccco3)c3ccccc32)c1,-1.37%
2,COc1ccccc1N1CCN(C(=O)c2oc3ccccc3c2NC(=O)C(C)Oc2ccccc2)CC1 (stereo not drawn),-4.87%
3,CCC(=O)N1CCc2cc(Br)cc(S(=O)(=O)N3CCN(c4ccccc4)CC3)c21,-9.78%
4,COc1ccc(NC(=O)c2ccco2)cc1NC(=O)COc1cc(C)cc(C)c1,-8.61%
5,COc1ccc(CNC(=O)C2CCCN(S(=O)(=O)c3ccc4c(c3)CCCN4C(C)=O)C2)cc1 (stereo not drawn),-0.783%
6,CCc1nnc2c(NCc3ccc(F)cc3)nc3ccccc3n12,17.5%
7,CCOc1ccc2nc(N3CCCC(C(=O)Nc4ccc(Br)c(C)c4)C3)sc2c1 (stereo not drawn),-13.9%
8,COc1ccccc1N1CCN(S(=O)(=O)c2ccc(F)c(C(=O)Nc3ccc(C)c(F)c3)c2)CC1,22.5%
9,COc1ccc(OCC(=O)NCCCN2CCOCC2)cc1,active: 31.7%
10,COc1ccc(-c2ccnc3c(-c4ccc(F)cc4)c(C)nn23)cc1OC,3.95%
11,Cc1ccc(NC(=O)C2CCCN2S(=O)(=O)c2cccc3cccnc23)cc1 (stereo not drawn),-4.63%
12,CC1CN(C(=O)N2CCC(C(=O)NC3CCCCCC3)CC2)c2cc(Cl)ccc2O1 (stereo not drawn),13.7%
13,Cc1cc(C)n2nc(CNS(=O)(=O)c3ccc(Cl)cc3)nc2n1,-0.459%
14,O=c1[nH]c(SCc2ccc(F)cc2)nc2c1CCCC2,6.35%
15,O=C(Cn1cc(SCc2cccc(Cl)c2)c2ccccc21)N1CCOCC1,7.39%
16,CCc1ccccc1-n1c(-c2ccncc2)n[nH]c1=S,active: 69.6%
17,COc1cc(C(=O)NC2CC(=O)N(c3cccc(F)c3)C2)cc(OC)c1OC (stereo not drawn),-19.6%
18,CCOc1ccc(CNC(=O)c2cc3c(=O)n(C)c4ccccc4c3s2)cc1,-7.66%
19,CCN(CC)CCCNC(=O)c1cc(-c2ccc(OC)c(OC)c2)on1,2.77%
20,Cc1ccc(NC(=O)Cn2c(=O)n(Cc3ccco3)c(=O)c3ccccc32)cc1,-12.8%
21,CN(C)S(=O)(=O)c1cccc(NC(=O)CNCC2CCCCC2)c1,active: 55.4%
22,Cc1ccc(NC(=O)CCCn2c(=O)c3cccn3c3cccnc32)c(Cl)c1,-3.52%
23,CN(C)CCCNc1oc(/C=C/c2ccc(F)cc2)nc1C#N,0.317%
24,O=c1oc2c3c(ccc2c2ccccc12)OCN(Cc1cccc(Cl)c1)C3,-4.18%
25,CCOc1ccccc1N(C)C(=O)C1CCCN(c2ncnc3onc(-c4ccc(F)cc4)c23)C1 (stereo not drawn),-7.45%

row,Compound,inhibition
1,O=C(CN1CCN(Cc2ccc(Cl)cc2)C1=O)NCc1ccc(F)cc1,1.9%
2,Cc1cc(C)c(NC(=O)CSc2nccn2Cc2ccco2)c(C)c1,-10.3%
3,CCn1cc(C(=O)NCCc2ccccc2)c(=O)c2cc(S(=O)(=O)N(C)C3CCCCC3)ccc21,-3.5%
4,CC(=O)c1[nH]c(C)c(C(=O)NCCc2ccc(C)cc2)c1C,12.1%
5,Cc1ccc(C2=Nc3ccccc3N(CC(=O)Nc3cccc(F)c3)C(=O)C2)cc1C,-4.77%
6,COc1ccc(-c2noc(-c3ccc(NCc4ccccc4OC)c([N+](=O)[O-])c3)n2)cc1,11.5%
7,CC(=O)Nc1cccc(C(=O)NCc2ccc3c(c2)CCN3C(C)=O)c1,-6.57%
8,Cc1ccc(CSc2cn(CC(=O)N3CCCCC3)c3ccccc23)cc1,18.8%
9,CCc1ccc(CN(C(=O)c2cc3ccccc3oc2=O)C2CCS(=O)(=O)C2)cc1 (stereo not drawn),-13.9%
10,Cc1ccc2nc(N(Cc3cccnc3)C(=O)C3COc4ccccc4O3)sc2c1 (stereo not drawn),-28%
11,COc1ccc(Cl)cc1NC(=O)CCC(=O)c1ccc(C)cc1,4.89%
12,CC(=O)c1ccc(NC(=O)c2ncn(-c3ccccc3)n2)cc1,-4%
13,CCCCNC(=O)CCCn1c(=O)c2ccccc2n(Cc2ccccc2C)c1=O,10%
14,COc1ccc(CNC(=O)COCc2cc(-c3cccs3)on2)cc1OC,-1.52%
15,CCc1c(C)sc2c1CCN(Cc1ccc(F)cc1)C2c1ccccc1 (stereo not drawn),-7.23%
16,CCN(CC)CCNC(=O)Cn1ncc2c([nH]c3ccccc32)c1=O,3.95%
17,CC(OC(=O)/C=C/c1ccccc1)C(=O)N1CCc2ccccc21 (stereo not drawn),active: 30.4%
18,CCCCN(CC)CCCNC(=O)c1cc2c(-c3ccc(OC)c(OC)c3)nn(C)c2s1,0.653%
19,CCOc1ccc(-c2cnc(NCc3ccc(OC)cc3OC)n2C)cc1,-24.9%
20,O=C(NCc1ccc(F)cc1)c1ccc(NC(=O)N2CC3CCCN3c3ccccc32)cc1 (stereo not drawn),-2.22%
21,COCCNC(=O)C1CCCN(S(=O)(=O)c2ccc3c(ccn3C)c2)C1 (stereo not drawn),-7.58%
22,Cn1nc(C(=O)N2CCN(c3ccccc3F)CC2)c2c1-c1ccccc1SC2,17.7%
23,O=C1c2oc3ccc(F)cc3c(=O)c2C(c2cccc([N+](=O)[O-])c2)N1CCCN1CCOCC1 (stereo not drawn),17.7%

# Source: PubChem BioAssay AID485344 (National Center for Advancing Translational Sciences (NCATS), 2010)
